Whole data set: some 1,400 sequences, median “thermal melting temperature (Tm) of peptide-HLA complex” near 60, cut for the lowest 2% near 45. Some of the results follow.
Each sequence was assayed against HLA-B*07:02 (assay: thermal melting temperature (Tm) of peptide-HLA complex; higher = more thermostable pHLA complex). Conditions: C1R-B*07:02.
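Note: cell lysates heated 10 min at 37–73 °C, remaining pHLA pulled down with pan-class I antibody, peptides quantified by DIA-MS versus 37 °C, Tm where half the complex is lost.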

Row | Sequence | thermal melting temperature [°C]
1 | SPRSVLEEM | 54.7
2 | RPRPPVLSV | 65.5
3 | TPRGAGSYTIM | 50.2
4 | SPHIPYKLL | 60.3
5 | GPRSAQVAQSL | 40.4
6 | RPISDFLTL | 63.2
7 | SPRDPENFPF | 63.2
8 | GPREAVSGL | 57.4
9 | KPRVTPVEV | 55.9
10 | APLPERNSL | 56.1
11 | APRQPGLMAQM | 61.9
12 | TPMGPGRTV | 54.4
13 | YPSDHRITTF | 59.8
14 | RGPGPLTL | 58.8
15 | QPSIPRMFL | 61.2
16 | TPSRKGLVL | 59
17 | KPAGPPGIL | 59.6
18 | RPFADLLGTAF | 60
19 | APRKPDWDL | 60.4

Row | Sequence | thermal melting temperature [°C]
20 | TPRRPAGLL | 62
21 | LPSGDRVAVSV | 61
22 | FPNIPGKSL | 62
23 | LPNGRDTPAL | 59.2
24 | TPRSTVGVVAL | 59.3
25 | TPRDLAVPAAL | 60.4
26 | HNESWVLL | 45.5
27 | LSRPPSPLSL | 62.3
28 | LPSKEHVDVI | 44.8
29 | APAGGSPRML | 50
30 | APSPPLRAL | 62.3
31 | VPNATIRNVL | 59.4
32 | KPILSTRSL | 59.9
33 | SPLPVGQNSL | 62.5
34 | VPQPSGRTL | 56.9
35 | SPIQKPQGL | 56.5
36 | VPRETAIQF | 61
37 | TPSSRPASL | 56
38 | APSTPRITTF | 60.9

Row | Sequence | thermal melting temperature [°C]
39 | HPRTSITVVL | 58
40 | HPDQAQAIL | 53.4
41 | QPMNVMTQSF | 57.4
42 | AVRQSVVVL | 58.9
43 | KPVIPAAAL | 61.1
44 | QLRLPGQQL | 52.5
45 | VPRAAFLSPL | 63.6
46 | IPRVVQEGDVL | 63
47 | HPINPRVAL | 58.9
48 | FPHPVNQVTF | 59.5
49 | TPSERITSL | 57.3
50 | FPRFSPVL | 62.5
51 | APRTVALTAL | 62.9
52 | LPSSGRSSL | 57.9
53 | QPSPARAPAEL | 58.4
54 | SPDKIPWSAL | 55.7
55 | LPQKAGGFL | 60.3
56 | APRPAGSYL | 61.8

Reference: the supplement of paper PMC7726561
